Results reported in patent US20220056135A1 (OSE IMMUNOTHERAPEUTICS, published 2022).

How the values were obtained:
[1] = molecular target: T1, Bicki anti-PD1VH-Sirpa, chimeric anti-PD1 antibody (heavy chain SEQ ID NO: 53, light chain SEQ ID NO: 54) … (human, UniProt P78324 31-373); assay: ELISA, human recombinant PD-1 immobilised, detection with anti-human Fc-peroxidase, TMB
T1 construct: Antibody-SIRPa fusion protein; also called anti-PD1VH-SIRPa antibody chimeric; not shown: peptide linker
Description: (§1) Revelation was performed with an anti-human Fc antibody coupled to peroxidase. Colorimetry was determined at 450 nm using TMB substrate.

[2] = molecular target: T2, Bicki anti-PD1VL-Sirpa, chimeric anti-PD1 antibody (heavy chain SEQ ID NO: 53, light chain SEQ ID NO: 54) … (human, UniProt P78324 31-373); assay: as above
T2 construct: Antibody-SIRPa fusion protein; also called anti-PD1VL-SIRPa antibody chimeric; not shown: peptide linker
Description: as §1

[3] = molecular target: T1, Bicki anti-PD1VH-Sirpa, chimeric …; assay: competition ELISA: PD-L1 immobilised, antibody mixed with biotinylated PD-1 at 0.6 µg/mL, streptavidin-peroxidase; blocked ligand PD-L1
Description: (§2) Competitive ELISA assay was performed by PD-1:PD-L1 Inhibitor Screening ELISA Assay Pair (AcroBiosystems; USA; reference EP-101). In this assay, recombinant hPDL1 was immobilized on plastic at 2 μg/ml in PBS pH 7.4 buffer.

[4] = molecular target: T2, Bicki anti-PD1VL-Sirpa, chimeric …; assay: as above
Description: as §2

SIRPa Fc = molecular target: T3, SIRPa Fc (human ( for this reagent), UniProt P78324); assay: flow cytometry on Jurkat cells, anti IgG-PE; ratio of the median fluorescence on PD-1+CD47+ cells over that on CD47+ cells
T3 construct: also called SIRPa-Fc molecule

binding result [1]: binds
binding result [2]: binds
B1: recombinant hPD1 (Sino Biologicals, reference 10377-H08H) (receptor)
chain: not shown
notes: also called Human recombinant PD-1 protein; PD1-His recombinant protein

binding result [3]: binds
binding result [4]: binds
B2: biotinylated Human PD1 (AcroBiosystems, reference EP-101) (receptor)
chain: not shown
modifications: biotinylated (site not stated)
notes: also called biotinylated recombinant human PD-1; rec PD1

binding result (SIRPa Fc): no binding (tested: 4.5 nM)
B3: PD-1 on Jurkat cells (PD-1+ CD47+ Jurkat cells; Jurkat stably expressing PD-1) (receptor)
chain: not shown
notes: whole, on cells; also called PD-1 receptor

Each block holds one binder with its values, some of them ahead of it.
